Holding throughout (experiment): cell count relative to DMSO control; melanoma cells; higher = more viable cells
Common to all, as to settings: library dose: standard library concentration; 72 h

Test [1] deals with SkMel28.
For test [2], the system named is SkMel2.
The subject of test [3] is SkMel30.
Test [4] relates to SkMel5.
In test [5] the test system is UACC257.
Test [6] has as its system UACC62.
For test [7], the system named is WM115.
Test [8] relates to WM1716.
The test system of test [9] is WM1745.
The test system of test [10] is WM3526.

The structures appear in SMILES notation. The list shows a part of the results. Many values rest on one well or one pass, so single values are uncertain.

The values that follow come from the supplement of paper PMC4604168 (melanoma cell lines).
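Further: cells treated in 1,536-well plates, then fixed and DAPI-stained, with nuclei counted from automated high-throughput microscope images.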

Regarding `Cc1cc(N2CCOCC2)cc2[nH]c(-c3c(NC[C@@H](O)c4cccc(Cl)c4)cc[nH]c3=O)nc12` + O=C(Nc1cccc(Cl)c1)Nc1ncc(CCNc2ncnc3ccsc23)s1 [SNS314] (first compound 1 µM, partner dose 0.004 µM), the cell count in test [1] came out at 49.4%; in [2], 62.7%; in test [3], 80.5%; in test [4], 65.7%; in test [5], 56.8%; in test [6], 93.9%. Moreover, the cell count in test [7] was determined as 46.3%; in [8], 64.8%; in [9], 45.8%; in test [10], 69.7%.

With `O=C(O)[C@@H]1[O][Sb](=[O])([O][Sb]2(=[O])[O][C@H]([C@H](O)CO)[C@H](O)[C@H](C(=O)O)[O]2)[O][C@H]([C@H](O)CO)[C@@H]1O` (stereo not given in full) [stibogluconate] + Nc1nc(F)nc2c1ncn2[C@@H]1O[C@H](CO)[C@@H](O)[C@@H]1O [fludarabine] (first compound 10 µM, partner dose 1 µM), the cell count in test [1] was found to be 4.94%; in test [2] it was 1.58%; in test [3], 24.6%; in test [4], 40.2%; in [5] it was 43%; in test [6], 105%. Besides, the cell count in test [7] is 75.6%; in test [8], 93%; in test [9] it was 94.6%; in test [10], 20%.

With `O=C(Nc1cc(C(F)(F)F)cc(C(F)(F)F)c1)c1cc(Cl)ccc1O` + CCCS(=O)(=O)Nc1ccc(F)c(C(=O)c2c[nH]c3ncc(Cl)cc23)c1F [PLX4720] (first compound 0.08 µM, partner dose 0.4 µM), the cell count in test [1] stood at 57.7%; in [2], 92.6%; in [3], 92.5%; in test [4], 79.3%; in test [5], 104%; in test [6], 56.8%. Also, the cell count in test [7] is 65.5%; in test [8] it was 66.6%; in test [9] it was 87.3%; in test [10], 66.3%.

On to `O=C(Nc1cc(C(F)(F)F)cc(C(F)(F)F)c1)c1cc(Cl)ccc1O` + CN1CCN(c2ccc3nc(-c4c(N)c5c(F)cccc5[nH]c4=O)[nH]c3c2)CC1 [Dovitinib] (first compound 0.08 µM, partner dose 0.5 µM), for which the cell count in [1] turned out to be 40.3%; in [2], 52.9%; in test [3], 78.8%; in test [4], 52.7%; in test [5], 75.3%; in test [6] it was 75.5%. For the same compound, the cell count turned out to be 53.5% in test [7], 65.1% in test [8], 62.8% in [9] and 72.1% in [10].

On to `O=C(O)c1ccc2c(c1)nc(Nc1cccc(Cl)c1)c1ccncc12` + C[C@]1(c2nc3c(C(N)=O)cccc3[nH]2)CCCN1 [Veliparib] (first compound 2 µM, partner dose 7 µM), for which the cell count in [1] is 75%; in test [2] it was 67.5%; in [3], 74.5%; in test [4], 73.3%; in test [5], 89.3%; in [6], 55.5%. In addition, the cell count in test [7] is 93.6%; in test [8] it was 79.8%; in [9], 61.9%; in test [10] it was 65%.

On to `O=C(O)c1ccc2c(c1)nc(Nc1cccc(Cl)c1)c1ccncc12` + Cc1ccc(NC(=O)c2cccc(N(C)C)c2)cc1NC(=O)c1ccc(O)cc1 [ZM336372] (first compound 2 µM, partner dose 10 µM), for which the cell count in [1] was determined as 71.2%; in test [2] it was 51.7%; in test [3], 86.5%; in test [4], 72.5%; in test [5], 77.2%; in [6], 78.3%. The cell count in [7] was 75.3%; in [8], 90.3%; in [9], 52.4%; in [10], 72%.

Consider `Cc1cc(N2CCOCC2)cc2[nH]c(-c3c(NC[C@@H](O)c4cccc(Cl)c4)cc[nH]c3=O)nc12` + CCCCCCCCCCCC1=C(O)C(=O)C=C(O)C1=O [Embelin] (first compound 1 µM, partner dose 6 µM), for which the cell count in [1] was found to be 86.5%; in [2] it was 73.5%; in [3], 77.2%; in test [4], 88%; in test [5], 79.9%; in test [6], 117%. The cell count was found to be 91.6% in test [7], 113% in test [8], 36.2% in test [9] and 87.6% in [10].

`O=C(Nc1cc(C(F)(F)F)cc(C(F)(F)F)c1)c1cc(Cl)ccc1O` + CN(C)S(=O)(=O)c1ccc2c(c1)/C(=C/c1cc3c([nH]1)CCCC3)C(=O)N2 [SU6656] (first compound 0.08 µM, partner dose 2 µM): the cell count in [1] was determined as 64.5%; in [2], 79%; in [3], 98.9%; in [4], 95.5%; in [5], 91.5%; in [6] it was 78.2%. Moreover, the cell count in test [7] stood at 56.2%; in [8] it was 62.8%; in test [9], 71.8%; in test [10], 73.8%.

Consider `O=C(Nc1cc(C(F)(F)F)cc(C(F)(F)F)c1)c1cc(Cl)ccc1O` + C[C@]1(c2nc3c(C(N)=O)cccc3[nH]2)CCCN1 [Veliparib] (first compound 0.08 µM, partner dose 7 µM), for which the cell count is 78.8% in [1]; 86.9% in test [2]; 88.9% in [3]; 88.9% in test [4]; 101% in test [5]; 62.9% in test [6]. The cell count in [7] was 78.8%; in test [8] it was 96.1%; in test [9] it was 84.9%; in test [10], 79.3%.

In the case of `O=C(Nc1cc(C(F)(F)F)cc(C(F)(F)F)c1)c1cc(Cl)ccc1O` + O=C(O)[C@@H]1[O][Sb](=[O])([O][Sb]2(=[O])[O][C@H]([C@H](O)CO)[C@H](O)[C@H](C(=O)O)[O]2)[O][C@H]([C@H](O)CO)[C@@H]1O [stibogluconate] (first compound 0.08 µM, partner dose 10 µM), the cell count amounted to 73.8% in test [1]; 104% in test [2]; 116% in test [3]; 111% in test [4]; 101% in [5]; 84.3% in [6]. Also, the cell count in test [7] was 88.6%; in [8] it was 112%; in test [9], 83.9%; in test [10], 115%.
